# Experimental data taken from the supplement of paper PMC3334620.
# Over roughly 33,000 sequences, “E-score (-0.5 to 0.5)” has its median near -0.043; the highest 2% begin near 0.37. The list shows a part of the results.
# Molecular target: T1, Upc2 (UniProt Q12151)
# T1 sequence: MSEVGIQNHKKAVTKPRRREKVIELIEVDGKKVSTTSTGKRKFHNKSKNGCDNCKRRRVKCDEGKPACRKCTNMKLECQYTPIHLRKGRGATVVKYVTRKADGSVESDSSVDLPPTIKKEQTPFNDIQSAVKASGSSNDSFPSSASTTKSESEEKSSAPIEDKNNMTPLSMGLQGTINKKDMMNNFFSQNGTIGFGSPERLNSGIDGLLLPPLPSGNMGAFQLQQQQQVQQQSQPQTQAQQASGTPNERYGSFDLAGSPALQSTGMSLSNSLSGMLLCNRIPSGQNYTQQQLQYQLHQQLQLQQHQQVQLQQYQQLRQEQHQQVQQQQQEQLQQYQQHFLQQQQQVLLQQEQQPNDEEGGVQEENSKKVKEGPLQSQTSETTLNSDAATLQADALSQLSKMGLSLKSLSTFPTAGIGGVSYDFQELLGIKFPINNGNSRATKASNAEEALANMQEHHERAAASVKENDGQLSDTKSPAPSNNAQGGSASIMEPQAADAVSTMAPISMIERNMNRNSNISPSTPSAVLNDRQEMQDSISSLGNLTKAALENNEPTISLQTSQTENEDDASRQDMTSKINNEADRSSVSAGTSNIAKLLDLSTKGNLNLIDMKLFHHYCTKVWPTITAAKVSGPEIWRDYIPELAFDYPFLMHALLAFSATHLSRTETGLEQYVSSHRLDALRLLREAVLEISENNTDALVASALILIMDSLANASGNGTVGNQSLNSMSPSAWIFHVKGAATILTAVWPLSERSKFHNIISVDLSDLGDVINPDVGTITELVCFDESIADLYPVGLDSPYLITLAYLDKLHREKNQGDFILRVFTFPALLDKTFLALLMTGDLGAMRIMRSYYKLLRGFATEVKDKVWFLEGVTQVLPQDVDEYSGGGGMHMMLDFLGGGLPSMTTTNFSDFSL
# Assay: PBM E-score (8-mer binding enrichment) (E-score (-0.5 to 0.5)); higher = stronger / more preferred TF binding; most listed sequences are background and not binding sites
# Conditions: protein concentration: 200 nM; construct: GST-full length
# Method in brief: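 Using PURExpress in vitro transcription/translation, GST-tagged yeast transcription factors were made in full-length or DNA-binding-domain form. These were applied at about 100-200 nM to double-stranded universal all-10-mer Agilent arrays, and bound protein was detected with fluorescent anti-GST. Scans were normalised with masliner before the Universal PBM Analysis Suite assigned E-scores to ungapped eight-base words pooled with their reverse complements.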
row,Sequence,PBM E-score
1,AGCTCTAA,-0.192
2,AGCATGCA,-0.289
3,CACTAATA,-0.0717
4,AGACACCT,-0.148
5,CCTTACCG,0.12
6,ATATTGTA,0.073
7,TAACAACA,0.185
8,CTTGTTGC,-0.27
9,ATTAGCCG,0.0535
10,CACGTGCG,0.0129
11,CACCTCCA,-0.19
12,ACACGTTA,-0.0364
13,AAAAATTC,-0.11
14,AAAAGCAC,0.0633
15,ACCATAGC,-0.298
16,GTCTGGTA,-0.0113
17,GATGAAGC,-0.144
18,GGCTCGAA,-0.0434
19,TCTACCCA,0.00742
20,GAGGACCC,-0.125
21,ATAATCAG,-0.0572
22,CATGGGTA,-0.1
23,CGTATGAC,0.42
24,ACCTAGCG,-0.0208
25,ATAGCTGG,-0.133

row,Sequence,PBM E-score
1,AGGGGCGG,-0.037
2,CAATAGGG,-0.0137
3,CGAGTCCC,0.0912
4,ACATTGTC,0.091
5,AAACCCAC,0.11
6,CACGTAAG,0.105
7,CCGCTGTC,-0.113
8,AAGCCTGC,-0.208
9,ATTGACAA,-0.0998
10,TATACCGA,0.333
11,CCAGCAAA,0.0457
12,AAATTTGC,-0.0327
13,AAATACTA,-0.0604
14,CATATGGG,-0.058
15,CAAATCAC,0.0792
16,AGATGCCT,-0.0725
17,AGTAAACG,0.442
18,CGATGAAA,0.0692
19,AATACTTC,-0.1
20,CGTAACCC,0.259
21,ACATCGTC,-0.00985
22,CATTGTCC,-0.182
23,GTCGCACA,0.227
24,GCGCCAAA,0.00017
25,CCTCGGAC,0.199

row,Sequence,PBM E-score
1,ACTCGACG,-0.00328
2,GCCTCCGC,-0.121
3,GCCGTCCC,0.0247
4,CCGATTAA,0.0714
5,CTCTTTGC,-0.24
6,AACAGTTC,0.017
7,GTTAACAA,0.0432
8,CGGTGCAG,-0.12
9,ACCTCTAC,0.222
10,GGACCCCA,0.0342
11,CAACTTTC,-0.00654
12,GAGAGGTA,-0.105
13,GTAGATTA,0.0947
14,CTAGACAC,-0.184
15,ATAGGCTA,-0.288
16,CCTAATTC,-0.158
17,TGCAGGAA,-0.136
18,AAAAACCG,-0.0777
19,AAGACGGA,0.0195
20,TATCTGAA,-0.05
21,CTCGACCC,-0.186
22,ATAGGAGC,-0.224
23,AATTTCGA,0.0126
24,GAAGAGAA,-0.0848
25,GCTCCTTA,-0.153

row,Sequence,PBM E-score
1,TCGCCCCA,-0.253
2,AACTACGA,0.175
3,AAGCACTA,0.0637
4,CACTAGGA,-0.245
5,TATTGGCA,-0.228
6,ATGTTAGA,-0.313
7,CTATTATA,-0.0976
8,CCACTACC,-0.178
9,GGAGCGCC,-0.192
10,CCTCCGAC,-0.174
11,CCCGAGCC,-0.0326
12,CTAACACA,0.0186
13,CATCTGTC,-0.146
14,CCAGTCCA,-0.353
15,CCCAAATC,-0.0922
16,AACAGGAA,-0.00503
17,AGCAGGTC,-0.157
18,AGACTGCA,-0.241
19,CCAGGATC,-0.0701
20,ATCACTCG,0.226
21,AGCTGCAG,0.0103
22,GTTTTAGA,-0.118
23,CCTAAAGG,-0.19
24,ATGCGAAG,0.269
25,CCAAAATA,-0.0313

row,Sequence,PBM E-score
1,AATCGATG,0.105
2,AAAGGTAC,0.0683
3,TCCCCCGA,-0.312
4,ATACTGAG,0.132
5,CATGTCAC,-0.0261
6,CAACAGAA,-0.148
7,ATTAGAAG,0.0049
8,AGGTTGCA,-0.0241
9,ATCCGAGG,0.18
10,GATGGTTA,0.12
11,CAGACAAG,-0.011
12,AAATCGAA,0.00511
13,CCAGGAGG,-0.279
14,CAGGCCAG,-0.033
15,AACGAATG,0.416
16,CAGTATAC,0.329
17,CAAATACG,0.311
18,CGGGGTTC,0.0784
19,GGGGGAAA,-0.263
20,CTAAATGC,-0.188
21,AAAGGGAA,-0.131
22,AAATCATG,-0.157
23,CCGTAAAG,0.395
24,GGCGCCCA,-0.0699
25,CTGGTGGA,-0.126

row,Sequence,PBM E-score
1,GGAGCCCC,-0.0924
2,CAAAGAGC,-0.169
3,CTTTTCAA,0.0421
4,ATTCAGCA,-0.12
5,CGCCGAGC,0.0222
6,CCTTGTGC,-0.0886
7,CGTAGACA,0.192
8,TGCCCCAA,-0.136
9,GAGGTTAC,0.104
10,GAAAATAC,0.133
11,AACGATCT,0.381
12,GCTACTCA,-0.168
13,ATACAGGA,0.0794
14,AGCGCACT,-0.207
15,ACCATCGG,-0.119
16,ACCGCGTA,0.244
17,CCAACGGA,-0.326
18,AGAAACTC,-0.0386
19,CCGGTCAC,-0.185
20,CTCAACTC,0.0603
21,ACGTTCGG,0.0616
22,GCACGAGC,-0.0167
23,GCATAGAC,-0.0874
24,AGAAACAT,0.0695
25,AGGGACCA,0.00835

row,Sequence,PBM E-score
1,GCTCCGCC,-0.128
2,ACTGTTAG,-0.201
3,AGTCTACC,0.0177
4,GCGTACTA,0.0874
5,ATGAGCAA,-0.105
6,AAGACGAT,0.063
7,AGCGCGCC,-0.0978
8,AGGACAGC,-0.0574
9,GACACCCC,-0.0621
10,CACTAACC,-0.114
11,ACAAGTGA,-0.174
12,CGAAGTGA,0.243
13,TAACCGAA,0.286
14,ATCTGATC,-0.184
15,GGTGAATA,-0.224
16,AAACAGAC,-0.0937
17,ACGGACTA,0.0376
18,CCGTCGCC,-0.044
19,CGCTTAAG,0.311
20,AGGGCATC,-0.215
21,CATGCGTA,0.275
22,CCAAGAAA,-0.281
